Experimental data as given in PubChem BioAssay (NCATS).
The inconclusive results got no clear call from the source; some entries with a clear call stand among them for comparison. For some of these results: Where the call is inconclusive, the potency comes from a doubtful curve fit. For some of these results: A note “side channel” means that the fit belongs to a control or component signal, not to the main read-out. Active and inactive are the calls of the source. Unless noted, the call rests on the fitted dose curve; in most records, active means well fitted curve in the direction sought with a large enough effect; inconclusive means small, poorly fitted or top-dose-only effect, or another doubt; inactive means no such curve, though single readings can be large; an effect the other way counts as inactive or inconclusive.

Assays:
[1] = AP1 Signaling Pathway (AID 357; active means well fitted curve in either direction with a large enough effect, not every such curve was filed as active; inconclusive means small, poorly fitted or top-dose-only effect, or another doubt;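 further: ME-180 reporter cells stimulated with EGF at its EC50 level; top concentration of the series differs between compounds; on the % scale 0 is the no-effect control and ±100 the full control effect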); settings: ME-180 AP-1-bla reporter, EGF-induced, beta-lactamase ratio, 5 h; at 7.69 µM (top of the series) unless noted
Summary of the method: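 First, ME-180 AP-1-bla cells were cultured overnight at 37 °C in low-serum Opti-MEM. Next, titrated compounds with EC50 EGF were incubated 5 hours. Finally, CCF4 was added for 2.5 hours and the 460/530 nm ratio recorded.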

[2] = NFAT Signaling Pathway (AID 444; active means well fitted curve in either direction with a large enough effect, not every such curve was filed as active; inconclusive means small, poorly fitted or top-dose-only effect, or another doubt;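 further: carbachol stimulus at about its EC50 of 1 µM final; on the % scale 0 is the no-effect control and ±100 the full control effect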); settings: Jurkat NFAT-bla M1, carbachol, beta-lactamase ratio, 5 h; at 7.69 µM (top of the series) unless noted
Summary of the method: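 Read-out: CCF4 FRET ratio (460 nm/530 nm) after 1 h RT dye loading, used for %activity and AC50 from titration series. Cells: Jurkat NFAT-β-lactamase/M1 line, treated with compound plus 1 uM carbachol for 5 h, 37 °C.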

[3] = biological target: Mitogen-activated protein kinase 10 (Mus musculus) (UniProt Q61831); test: JNK3 AlphaScreen Assay (AID 530; active means well fitted curve in either direction with a large enough effect, not every such curve was filed as active; inconclusive means small, poorly fitted or top-dose-only effect, or another doubt;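 further: kinase came from lysate of stimulated human HepG2 cells; signal reports phosphorylation of biotinylated GST-cJun 1-79 at Ser73 with 10 µM ATP; on the % scale 0 is the no-effect control and ±100 the full control effect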); settings: JNK3 lysate, c-Jun phosphorylation; activity change, negative = inhibition: at 57.1 µM (top of the series)
Summary of the method: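 Kinase buffer: 20 mM Tris-HCl pH 7.6, 10 mM MgCl2, 1 mM DTT, 0.1 mM Na3VO4, 0.01% Tween-20; ATP 10 uM. Substrate biotin-GST-cJun(1-79), enzyme from activated HepG2 lysates. Detection by Ser73 phospho-antibody AlphaScreen.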

[4] = qHTS Assay for Identification of Small Molecule Antagonists for NFkB Signaling Pathway (AID 895; active means well fitted inhibition curve with a large enough effect in the signal ratio, with a control signal flat, not every such curve was filed as active; inconclusive means small, poorly fitted or top-dose-only effect, or effect the other way, or a change in a side signal; the % refers to the signal ratio; further: potency means the concentration at half of the fitted maximal effect); settings: NFkB beta-lactamase reporter cells, FRET ratio 460/530, stimulated with 10 pM TNF alpha; activity change, negative = inhibition: at 38.3 µM (top of the series)
Summary of the method: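 Beta-lactamase reporter read-out (460 and 530 nm emission ratio, 405 nm excitation, 2 hrs substrate loading RT) after 5 hr stimulation with 10 pM TNF alpha in compound-treated NFkB-bla ME-180 cells in low-serum medium.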

[5] = qHTS Assay for Identification of Small Molecule Agonists for Hypoxia Response Element Signaling Pathway (AID 914; active means well fitted activation curve with a large enough effect in the signal ratio, with a control signal flat, not every such curve was filed as active; inconclusive means small, poorly fitted or top-dose-only effect, or effect the other way, or a change in a side signal; the % refers to the signal ratio; further: potency means the concentration at half of the fitted maximal effect; on activation: top concentration of the series differs between compounds; % of control where 0% means no effect); settings: ME-180 HRE-bla reporter, beta-lactamase ratio, CoCl2, 17 h; activation: stronger effect = higher value
Summary of the method: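 A beta-lactamase reporter under hypoxia response element control in ME-180 cells served as the system. Compound titrations plus EC50 CoCl2 ran 17 h at 37 degrees Celsius; AC50 values were fitted from %Activity.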

[6] = qHTS Assay for Identification of Small Molecule Agonists for Thrombopoietin (TPO) Signaling Pathway (AID 917); further: potency means the concentration at half of the fitted maximal effect
Summary of the method: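 Cell-based luciferase reporter screen. Mouse Ba/F3 line stably expressing human TPO receptor; IL-3 removed overnight before plating. Co-treatment with compound and EC50 TPO (26 pM), 24 hrs at 37 C, then luminescence.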

[7] = qHTS Assay for Identification of Small Molecule Antagonists for Thrombopoietin (TPO) Signaling Pathway (AID 918); settings: TPO-dependent cell signaling reporter, antagonist mode; activity change, negative = inhibition: at 38.5 µM (top of the series); further: potency means the concentration at half of the fitted maximal effect; nearly all actives have a fitted effect of over 60% in size
Summary of the method: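 Luminescence read-out: GPIIb-promoter luciferase in Ba/F3 cells carrying human TPO receptor. Compounds added with 26 pM TPO (EC50), 24 hrs, 37 C, 5% CO2; cells deprived of IL-3 overnight beforehand. Inhibition of signal scored.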

[8] = biological target: Muscarinic acetylcholine receptor M1 (Rattus norvegicus) (UniProt P08482); test: qHTS Assay for Antagonists of Acetylcholine Muscarinic M1 Receptor: Measurement of IP-One Response (AID 944); further: potency means the concentration at half of the fitted maximal effect; nearly all actives have a fitted effect of over 75% in size
[9] = qHTS Assay for Lipid Storage Modulators (AID 1519; calls by dose curve; further: on the % scale 0 is the no-effect control and ±100 the full control effect); settings: Drosophila S3 cells, BODIPY lipid droplet/cell ratio, laser cytometry, cells loaded with oleic acid; activity change, negative = inhibition: at 57.5 µM (top of the series) unless noted
Summary of the method: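 Cells seeded at 5,000 per well were treated with compounds over a concentration series and loaded with oleic acid (400 uM, as added). Lipid droplet fluorescence (488 nm excitation, 500-530 nm channel) was read by laser-scanning cytometry and normalized to 20 uM Triacsin C.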

[10] = biological target: Endonuclease 4 (Escherichia coli (strain K12)) (UniProt P0A6C1); test: Counterscreen for APE1 Inhibitors: qHTS Validation Assay for Inhibitors of Endonuclease IV (AID 1708); further: potency means the concentration at half of the fitted maximal effect
Summary of the method: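 The reaction buffer contained 50 mM Tris-HCl pH 7.5, 50 mM NaCl, 2 mM MgCl2, 1 mM DTT and 0.01% Tween-20. Incision of a 50 nM fluorophore/quencher THF substrate by 2 nM enzyme was measured kinetically.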

[11] = qHTS for differential inhibitors of proliferation of Plasmodium falciparum line 7G8 (AID 1815);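 further: potency means the concentration at half of the fitted maximal effect; parasite growth measured after three days of incubation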
[12] = qHTS for differential inhibitors of proliferation of Plasmodium falciparum line 3D7 (AID 1876); further: potency means the concentration at half of the fitted maximal effect
[13] = qHTS for differential inhibitors of proliferation of Plasmodium falciparum line Dd2 (AID 1882); settings: Potency: Plasmodium falciparum Dd2 proliferation inhibition; further: potency means the concentration at half of the fitted maximal effect; nearly all actives have a fitted effect of over 65% in size
Summary of the method: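 RBC culture, 0.3% parasitemia / 2.5% Hct final; cpd added by pin tool in DMSO; 72 h, 37 C, 5% CO2; lysis buffer + SYBR Green I, o/n RT dark; FI 485/535; norm. to artemisinin 0.29 uM and DMSO.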

[14] = qHTS for differential inhibitors of proliferation of Plasmodium falciparum line HB3 (AID 1886); settings: Potency: Plasmodium falciparum HB3 proliferation inhibition;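 further: potency means the concentration at half of the fitted maximal effect; parasites grown with compound for 72 h before SYBR Green readout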
[15] = biological target: Ferritin light chain (Equus caballus) (UniProt P02791); test: qHTS Validation Assay for Identification of Novel General Anesthetics (AID 2323); further: potency means the concentration at half of the fitted maximal effect
Summary of the method: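 Fluorescence at 535 nm (excitation 380 nm) reported loss of 1-AMA binding to horse-spleen apoferritin (10 uM) in PBS with 50% saturated 1-aminoanthracene, after 10 min room-temperature incubation with compound; values from Hill fits of normalized response.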

[16] = biological target: RecQ-like DNA helicase BLM (Homo sapiens) (UniProt P54132); test: qHTS Validation Assay for Inhibitors of Bloom's syndrome helicase (BLM) (AID 2364); further: potency means the concentration at half of the fitted maximal effect
Summary of the method: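 Forked 20-bp duplex substrate (200 nM, TAMRA/BHQ-2) plus 2 mM ATP added after 15 min compound preincubation with 50 nM enzyme, pH 8.0, poly(dI-dC) 2.5 ug/ml. Strand separation followed by fluorescence (525/598 nm) over 2 h, normalized to enzyme-free and DMSO controls.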

[17] = Validation screen for small molecules that induce DNA re-replication in MCF 10A normal breast cells (AID 463097); further: potency means the concentration at half of the fitted maximal effect; nearly all actives have a fitted effect of over 60% in size
Summary of the method: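 Image-based qHTS: normal breast cells are incubated with compound for 48 hr, stained with Hoechst, and scanned for total nuclear fluorescence. Compounds raising the fraction of nuclei with elevated DNA content count as re-replication inducers.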

[18] = Quantitative high throughput screen for delayed death inhibitors of the malarial parasite plastid, 96 hour incubation (AID 488745); further: potency means the concentration at half of the fitted maximal effect; nearly all actives have a fitted effect of over 70% in size
Summary of the method: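 Luciferase-expressing P. falciparum, infected RBCs 2% Hct/0.1% parasitemia (final); 96 h cpd exposure, 37 C, 5% CO2; RPMI 1640 + 0.5% Albumax, bicarbonate, gentamycin. Readout: luminescence loss = growth inhibition.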

[19] = Quantitative high throughput screen for delayed death inhibitors of the malarial parasite plastid, 48 hour incubation (AID 488752); further: potency means the concentration at half of the fitted maximal effect; nearly all actives have a fitted effect of over 65% in size
Summary of the method: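 Luciferase-expressing P. falciparum in RBCs, 2% Hct, 0.1% parasitemia final; RPMI 1640 + 0.5% Albumax; 48 h, 37 C, 5% CO2; luminescence readout, signal drop = growth inhibition.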

[20] = Validation screen for small molecules that induce DNA re-replication in SW480 colon adenocarcinoma cells (AID 504364); further: potency means the concentration at half of the fitted maximal effect
Summary of the method: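 Read-out: total Hoechst intensity of nuclei by fluorescence scanning imager; hits raise the fraction of nuclei with elevated DNA content. Cells received compound for 48 hr at 37 C before a 40 min stain.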

[21] = Stat Signaling Pathway (AID 446; active means well fitted curve in either direction with a large enough effect, not every such curve was filed as active; inconclusive means small, poorly fitted or top-dose-only effect, or another doubt); settings: ME-180 (cervical carcinoma) SIE beta-lactamase reporter, IL-6 stimulated, 5 h; at 7.69 µM (top of the series) unless noted
Summary of the method: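 Overnight-plated ME-180 cells bearing a STAT Inducible Element beta-lactamase reporter; 5 h co-exposure to compound and 40 pM IL-6; values normalized to 300 pM IL-6 and 125 nM JAK inhibitor controls.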

[22] = biological target: Dual specificity protein kinase CLK4 (Homo sapiens) (UniProt Q9HAZ1); test: qHTS Assay for Inhibitors of CDC-like Kinase 4 (Kinase-Glo Assay) (AID 1770); further: nearly all actives have a fitted effect of over 65% in size; further: potency means the concentration at half of the fitted maximal effect
Summary of the method: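 Substrate mix (RS peptide 100 uM, ATP 1 uM) dispensed, compound pinned in, then Clk4 added to 25 nM final. Incubated 4.5 h at RT; Kinase-Glo reagent added, luminescence read after 5 min.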

[23] = biological target: Dual specificity protein kinase CLK4 (Homo sapiens) (UniProt Q9HAZ1); test: qHTS Assay for Inhibitors of CDC-like Kinase 4 (ADP-Glo Assay) (AID 1771); further: nearly all actives have a fitted effect of over 70% in size; further: potency means the concentration at half of the fitted maximal effect
Summary of the method: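 25 nM Clk4, 100 uM RS peptide, 1 uM ATP (final); 2 mM MgCl2, 0.5 mM EGTA, 2.5 mM DTT, 0.01% Triton X-100; 1 hr RT. ADP-Glo readout: ATP depletion 45 min, conversion/luciferase 30 min, luminescence.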

[24] = biological target: 3',5'-cyclic-AMP phosphodiesterase 4B (Homo sapiens) (UniProt Q07343); test: qHTS Assay for Inhibitors of PDE-IV (AID 607; active means well fitted activation curve with a large enough effect in the main read-out, with a control signal flat, not every such curve was filed as active; inconclusive means small, poorly fitted or top-dose-only effect, or effect the other way, or a change in a side signal; further: potency means the concentration at half of the fitted maximal effect); settings: HEK293 ACTOne CNG channel cells, membrane potential fluorescence; activation (PDE inhibition): at 22.9 µM (top of the series)
Summary of the method: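 Live HEK293 cells with a modified cyclic nucleotide-gated (CNG) channel report intracellular cAMP via membrane-potential dye fluorescence (ex 535/em 590 nm). Endogenous PDE-IV was targeted. Compounds were tested at up to 22.9 uM final; RO 20-1724 100 uM served as control.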

[25] = biological target: Cytochrome P450 2D6 (Homo sapiens) (UniProt P10635); test: qHTS Assay for Inhibitors and Substrates of Cytochrome P450 2D6 (AID 891);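 further: luciferin methyl ether substrate demethylated by CYP2D6 with NADPH regeneration; potency means the concentration at half of the fitted maximal effect; nearly all actives have a fitted effect of over 60% in size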
Summary of the method: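 Luminescent read-out of luciferin formed by 5 nM human CYP2D6 demethylating 30 uM Luciferin-ME EGE (Km level) over 60 min at room temperature after NADPH regeneration addition. Data normalized to full inhibition by 1.43 uM quinidine.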

[26] = biological target: Dual specificity protein kinase CLK4 (Homo sapiens) (UniProt Q9HAZ1); test: qHTS Assay for Inhibitors of CDC-like Kinase 4 (ADP-FP Assay) (AID 1795);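 further: recombinant human CLK4 phosphorylating RS repeat peptide at 1 µM ATP; on the % scale 0 is the no-effect control and ±100 the full control effect; nearly all actives have a fitted effect of over 60% in size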
Summary of the method: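 Clk4 6.25 nM; RS peptide 100 uM; ATP 1 uM; 25 mM Tris pH 7.5, 10 mM MgCl2; 1 h reaction. ADP detected via antibody/orange tracer FP displacement; TG003 positive control.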
Tags describe the fitted curve by direction and shape or compound fluorescence and quenching.

Sequence of UniProt Q9HAZ1 (Q9HAZ1 whole entry, looked up): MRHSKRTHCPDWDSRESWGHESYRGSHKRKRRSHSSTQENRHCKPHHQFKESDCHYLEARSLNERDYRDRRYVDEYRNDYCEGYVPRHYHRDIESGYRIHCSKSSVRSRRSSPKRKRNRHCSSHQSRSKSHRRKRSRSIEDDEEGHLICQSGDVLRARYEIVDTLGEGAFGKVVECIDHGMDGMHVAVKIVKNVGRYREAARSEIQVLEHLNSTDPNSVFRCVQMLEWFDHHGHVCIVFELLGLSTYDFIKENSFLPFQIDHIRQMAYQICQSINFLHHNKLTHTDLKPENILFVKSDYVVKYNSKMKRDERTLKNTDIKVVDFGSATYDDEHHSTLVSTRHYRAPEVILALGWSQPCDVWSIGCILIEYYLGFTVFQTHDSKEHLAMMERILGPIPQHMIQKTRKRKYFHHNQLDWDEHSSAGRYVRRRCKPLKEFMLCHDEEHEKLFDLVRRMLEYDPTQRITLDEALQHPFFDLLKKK
Sequence of UniProt P54132 (P54132 whole entry, looked up): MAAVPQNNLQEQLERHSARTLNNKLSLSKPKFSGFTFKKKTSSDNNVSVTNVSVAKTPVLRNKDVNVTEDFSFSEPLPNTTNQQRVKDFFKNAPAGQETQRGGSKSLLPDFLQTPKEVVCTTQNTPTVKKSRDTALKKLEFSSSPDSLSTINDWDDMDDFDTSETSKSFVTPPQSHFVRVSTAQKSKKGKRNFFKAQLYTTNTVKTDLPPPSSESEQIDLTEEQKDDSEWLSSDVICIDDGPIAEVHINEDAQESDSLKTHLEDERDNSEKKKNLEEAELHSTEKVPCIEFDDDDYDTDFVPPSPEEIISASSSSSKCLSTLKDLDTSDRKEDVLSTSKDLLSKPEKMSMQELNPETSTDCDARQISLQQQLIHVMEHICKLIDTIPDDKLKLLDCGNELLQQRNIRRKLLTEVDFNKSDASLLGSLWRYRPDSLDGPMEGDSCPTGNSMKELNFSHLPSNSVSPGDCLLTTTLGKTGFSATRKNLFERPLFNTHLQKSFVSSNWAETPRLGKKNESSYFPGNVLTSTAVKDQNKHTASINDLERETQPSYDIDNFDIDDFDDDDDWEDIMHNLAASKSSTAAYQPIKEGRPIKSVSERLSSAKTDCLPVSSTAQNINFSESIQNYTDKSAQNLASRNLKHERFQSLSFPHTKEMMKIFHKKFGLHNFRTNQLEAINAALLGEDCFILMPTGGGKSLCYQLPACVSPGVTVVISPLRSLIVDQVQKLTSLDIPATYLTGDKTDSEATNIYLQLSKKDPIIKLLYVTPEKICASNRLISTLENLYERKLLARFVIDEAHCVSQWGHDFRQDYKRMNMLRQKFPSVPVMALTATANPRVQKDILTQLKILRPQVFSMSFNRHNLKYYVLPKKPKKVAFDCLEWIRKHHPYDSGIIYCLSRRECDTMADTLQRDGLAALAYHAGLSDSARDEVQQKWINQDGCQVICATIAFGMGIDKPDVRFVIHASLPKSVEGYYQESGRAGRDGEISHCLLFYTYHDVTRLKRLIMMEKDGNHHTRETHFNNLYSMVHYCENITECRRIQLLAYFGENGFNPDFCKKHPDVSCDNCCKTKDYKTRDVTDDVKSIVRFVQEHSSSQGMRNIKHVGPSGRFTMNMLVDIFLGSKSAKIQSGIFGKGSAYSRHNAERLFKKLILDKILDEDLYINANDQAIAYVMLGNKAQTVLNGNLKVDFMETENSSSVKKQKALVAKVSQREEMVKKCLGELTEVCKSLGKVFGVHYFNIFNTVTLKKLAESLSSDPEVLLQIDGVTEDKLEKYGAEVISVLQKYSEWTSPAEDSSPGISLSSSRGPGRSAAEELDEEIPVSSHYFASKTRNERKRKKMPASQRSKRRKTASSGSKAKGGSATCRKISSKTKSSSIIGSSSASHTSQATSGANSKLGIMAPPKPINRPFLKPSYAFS
Sequence of UniProt P08482 (P08482 whole entry, looked up): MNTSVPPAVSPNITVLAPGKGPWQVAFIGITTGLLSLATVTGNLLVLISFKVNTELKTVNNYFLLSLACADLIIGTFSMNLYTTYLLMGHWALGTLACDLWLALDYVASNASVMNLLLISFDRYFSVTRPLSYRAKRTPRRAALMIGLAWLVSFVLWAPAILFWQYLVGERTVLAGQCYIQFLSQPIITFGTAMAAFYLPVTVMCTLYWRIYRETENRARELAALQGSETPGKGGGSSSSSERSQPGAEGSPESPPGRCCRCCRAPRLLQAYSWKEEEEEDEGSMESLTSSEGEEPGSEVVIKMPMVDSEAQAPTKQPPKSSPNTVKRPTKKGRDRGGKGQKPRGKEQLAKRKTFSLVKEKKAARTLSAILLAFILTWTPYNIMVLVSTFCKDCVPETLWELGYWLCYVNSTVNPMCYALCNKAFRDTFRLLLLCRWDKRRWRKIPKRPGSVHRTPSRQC
Sequence of UniProt P10635 (P10635 whole entry, looked up): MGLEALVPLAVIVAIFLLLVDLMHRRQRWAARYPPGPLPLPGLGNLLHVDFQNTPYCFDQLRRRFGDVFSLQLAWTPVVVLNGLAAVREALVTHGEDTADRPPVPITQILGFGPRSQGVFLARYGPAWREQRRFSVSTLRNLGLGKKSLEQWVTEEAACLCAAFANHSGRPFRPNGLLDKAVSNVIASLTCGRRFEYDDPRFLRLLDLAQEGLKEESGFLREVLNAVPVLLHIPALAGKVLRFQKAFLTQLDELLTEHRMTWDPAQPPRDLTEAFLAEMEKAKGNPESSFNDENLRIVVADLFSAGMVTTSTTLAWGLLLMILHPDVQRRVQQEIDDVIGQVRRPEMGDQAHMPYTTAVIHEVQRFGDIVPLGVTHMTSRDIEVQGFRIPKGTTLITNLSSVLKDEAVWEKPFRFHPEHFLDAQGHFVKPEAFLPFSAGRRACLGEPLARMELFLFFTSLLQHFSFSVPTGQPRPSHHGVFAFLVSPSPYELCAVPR
Sequence of UniProt P02791 (P02791 whole entry, looked up): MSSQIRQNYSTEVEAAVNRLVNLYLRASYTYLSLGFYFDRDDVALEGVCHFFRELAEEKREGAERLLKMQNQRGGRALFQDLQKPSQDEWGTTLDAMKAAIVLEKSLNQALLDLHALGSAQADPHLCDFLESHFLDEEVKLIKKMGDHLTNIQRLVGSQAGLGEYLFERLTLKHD
Sequence of UniProt Q07343 (Q07343 whole entry, looked up): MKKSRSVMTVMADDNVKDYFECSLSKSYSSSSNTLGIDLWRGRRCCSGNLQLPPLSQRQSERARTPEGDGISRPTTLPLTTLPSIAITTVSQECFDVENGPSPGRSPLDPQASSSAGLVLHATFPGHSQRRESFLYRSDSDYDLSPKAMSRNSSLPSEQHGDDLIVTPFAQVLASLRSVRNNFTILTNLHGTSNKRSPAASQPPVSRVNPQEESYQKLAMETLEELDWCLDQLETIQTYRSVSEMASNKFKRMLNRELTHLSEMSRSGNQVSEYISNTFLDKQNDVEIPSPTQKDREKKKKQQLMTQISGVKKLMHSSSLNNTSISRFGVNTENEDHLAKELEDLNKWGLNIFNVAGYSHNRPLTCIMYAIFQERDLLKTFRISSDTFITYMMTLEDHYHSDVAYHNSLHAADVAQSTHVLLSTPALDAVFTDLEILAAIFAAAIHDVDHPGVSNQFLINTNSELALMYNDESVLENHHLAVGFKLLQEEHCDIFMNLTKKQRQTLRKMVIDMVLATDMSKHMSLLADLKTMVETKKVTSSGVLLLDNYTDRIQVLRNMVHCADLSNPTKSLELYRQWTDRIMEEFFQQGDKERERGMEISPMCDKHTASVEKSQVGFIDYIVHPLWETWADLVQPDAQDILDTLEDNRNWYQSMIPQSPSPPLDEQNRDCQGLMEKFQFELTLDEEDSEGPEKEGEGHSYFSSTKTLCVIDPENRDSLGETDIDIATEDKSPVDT

N#Cc1c(-c2ccccc2)no[n+]1[O-]
active: Potency [7] 3.98 µM | Potency [11] 10 µM | Potency [14] 11.2 µM
inconclusive: activity change, negative = inhibition [1] -42% [inhibitor] [at 38 µM] | activity change, negative = inhibition [2] -103% [inhibitor] [at 38 µM] | activity change, negative = inhibition [3] -17.5% | Potency [4] 10 µM [side channel, partial curve] | activation [5] -64.4% | Potency [6] 3.98 µM [inhibitor, partial curve] | Potency [8] 2.51 µM [inhibitor, full curve] | activity change, negative = inhibition [9] 1.44% | Potency [10] 6.31 µM [inhibitor, full curve, poor fit] | Potency [12] 10 µM [inhibitor, single point] | Potency [13] 10 µM [inhibitor, single point] | Potency [15] 44.7 µM [inhibitor, partial curve] | Potency [16] 20 µM [inhibitor, partial curve] | Potency [17] 3.98 µM [activator, full curve] | Potency [18] 18.5 µM [inhibitor, single point] | Potency [19] 1.31 µM [inhibitor, partial curve] | Potency [20] 20.6 µM [activator, single point]

O=c1c(-c2cc(F)cc(F)c2)nc2cnc(N3CCNCC3)nc2n1C1CC1
inconclusive: activity change, negative = inhibition [1] 114% [activator] | activity change, negative = inhibition [2] 120% [activator] | activity, negative = inhibition [21] 165% [activator] | Potency [22] 31.6 µM [falling, partial curve] | Potency [23] 35.5 µM [falling, single point]
inactive: Potency [9]
active: Potency [5] 2.51 µM

CN(C)c1ncc2nc(-c3ccc(Cl)cc3)c(=O)n(-c3ccccc3)c2n1
inactive: Potency [22] | Potency [23]
inconclusive: activity change, negative = inhibition [1] 42.7% [activator] | activity change, negative = inhibition [2] 35.4% [activator] | activity, negative = inhibition [21] 104% [activator] | Potency [25] 0.631 µM [inhibitor, partial curve] | activity change, negative = inhibition [9] 7.02%
active: Potency [24] 1 µM | Potency [5] 2.51 µM

CCNc1ncc2nc(C)c(=O)n(CCOC)c2n1
inconclusive: activity change, negative = inhibition [9] 2.16% | Potency [22] 25.1 µM [falling, partial curve] | Potency [23] 15.8 µM [falling, partial curve]
inactive: Potency [26]
